Measured values published in PubChem BioAssay AID485294 (National Center for Advancing Translational Sciences (NCATS), 2010).
The campaign covered roughly 370,000 compounds. About 150 (0.041%) were called active. The inconclusive results got no clear call from the source; some entries with a clear call stand among them for comparison. Calls come from the whole dose curve; as a rule, active = well fitted inhibition curve with a large enough effect; inconclusive = small, poorly fitted or top-dose-only effect; inactive = flat fitted curve, though single readings scatter. No potency is given beside an inconclusive call; the fits are too rough.
Note: nearly all actives have a fitted effect of over 25% in size.
Potency is the fitted concentration of half-maximal effect; tags give direction and shape of the fitted curve.

Each compound was assayed against Beta-lactamase (Escherichia coli (strain K12)) (UniProt P00811) (assay: qHTS Inhibitors of AmpC Beta-Lactamase (assay with detergent)). Conditions: AmpC hydrolysis of nitrocefin, absorbance 480 nm, 0.01% Triton; series mostly up to 114 µM.
Chain of UniProt P00811 (P00811 whole entry, looked up): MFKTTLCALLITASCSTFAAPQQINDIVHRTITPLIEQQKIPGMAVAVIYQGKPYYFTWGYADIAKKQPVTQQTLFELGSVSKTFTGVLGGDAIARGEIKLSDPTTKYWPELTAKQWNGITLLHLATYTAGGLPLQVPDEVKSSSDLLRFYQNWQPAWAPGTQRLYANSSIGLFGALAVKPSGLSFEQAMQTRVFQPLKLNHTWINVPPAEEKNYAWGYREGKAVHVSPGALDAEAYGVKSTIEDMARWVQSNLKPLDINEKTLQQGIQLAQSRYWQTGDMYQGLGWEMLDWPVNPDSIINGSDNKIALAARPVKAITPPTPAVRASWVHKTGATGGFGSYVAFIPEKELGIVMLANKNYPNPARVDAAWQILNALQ
In short: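 20 mM phosphate pH 7.0 + 0.01% (detergent screen) or 0.0001% Triton X-100; 5.3 nM AmpC reagent; cpd preinc 15 min RT; nitrocefin (800 uM stock) to start; A480 q20 s × 4 min; Activity was normalised to no-enzyme and no-compound control wells.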
In the case of `CC1(C)CNc2cc(N)ccc2S1`, the Potency is reported as “inactive”.
For `Cc1cccc(C)c1NC(=S)NCCc1ccc(O)c(O)c1`, the Potency was “inactive”.
For `Cc1ccc(S(=O)(=O)c2cn(C)c3cc(N4CCN(C)CC4)c(F)cc3c2=O)c(C)c1`, the Potency was “inactive”.
In the case of `O=C(CSc1ccc2ccccc2c1)NCCCN1CCCC1=O`, the Potency is reported as inconclusive [inhibitor, full curve, poor fit].
`O=C(Oc1cccc(N2C(=O)CCC2=O)c1)C1CC(=O)N(c2ccc(F)cc2)C1` (stereo not given) was tested, and the Potency was inconclusive [inhibitor, partial curve, poor fit].
With `CCC(C)NC(=O)C1CCC(=O)N(c2cc(OC)c(OC)c(OC)c2)C1c1ccc(OC)cc1` (stereo not given) the Potency was inconclusive [inhibitor, partial curve, poor fit].
For `COc1ccc(-n2c(C)cc(/C=C3\SC(=O)NC3=O)c2C)cc1`, the Potency was “inactive”.
With `CCCCNc1c(N2CCN(C(=O)OCC)CC2)c(=O)c1=O` the Potency was inconclusive [inhibitor, full curve, poor fit].
`O=C(CCc1ccc(S(=O)(=O)N2CCCCC2)cc1)c1nnc(-c2ccccc2)o1` was tested, and the Potency was inconclusive [inhibitor, full curve, poor fit].
`O=C(N/N=C/C(Br)=C\c1ccccc1)c1ccco1` was tested, and the Potency was “inactive”.
In the case of `COc1cccc(C(C(=O)NC(C)(C)C)N(Cc2ccc(F)cc2)C(=O)CCC(=O)Nc2cc(C)on2)c1OC` (stereo not given), the Potency is reported as “inactive”.
For `CCCCNC(=O)CSc1nc2ccccc2nc1Cc1ccccc1`, the Potency was “inactive”.
`CCOc1ccc(N=Nc2c(=O)[nH]n3c(=O)cc(C)[nH]c23)cc1` was tested, and the Potency was inconclusive [inhibitor, partial curve].
`CCC1COCCS(=O)(=O)N1Cc1cccc(Cl)c1` (stereo not given) was tested, and the Potency was inconclusive [inhibitor, partial curve].
In the case of `C/C(=N/NC(=O)c1cc(-c2ccccc2)nc2c(Cl)cccc12)c1cccnc1`, the Potency is reported as inconclusive [inhibitor, full curve].
With `COc1cc(CNc2ccc(CNc3ncn[nH]3)cc2)cc(Cl)c1OCc1ccccc1` the Potency was inconclusive [inhibitor, partial curve, poor fit].
`N#Cc1ccc(C(c2nnnn2C2CCCC2)N2CCC(Cc3ccccc3)CC2)cc1` (stereo not given) was tested, and the Potency was “inactive”.
`CCCCSc1cc(C)nc(N)n1` was tested, and the Potency was “inactive”.
With `CCn1nc(C)c(CNC(=O)C2CCC(=O)N(Cc3cccc(F)c3)C2)c1C` (stereo not given) the Potency was inconclusive [inhibitor, full curve, poor fit].
For `O=C(C[n+]1cccc(NC(=O)c2ccccc2)c1)c1ccc(NC(=O)c2ccccc2)cc1`, the Potency was inconclusive [inhibitor, full curve].
`CCCNC(=O)Cn1nc(C)c2c(C)n(-c3ccccc3)nc2c1=O` was tested, and the Potency was “inactive”.
`Cc1nn(-c2ccccc2)c(C)c1/C=N/NC(=O)c1cc(-c2cccc3ccccc23)n[nH]1` was tested, and the Potency was “inactive”.
For `COc1ccc2c(c1)C(=O)/C(=C/C=C/c1ccccc1)CC2`, the Potency was inconclusive [inhibitor, full curve, poor fit].
With `COc1cccc(-c2csc(N3CCN(C(=O)Nc4ccc(F)cc4)CC3)n2)c1` the Potency was “inactive”.
In the case of `CN1c2ccccc2-c2nc(SCC(=O)Nc3ccccc3)ncc2S1(=O)=O`, the Potency is reported as “inactive”.
In the case of `COc1ccc(C(=O)OCCN2CCCCC2)cc1`, the Potency is reported as “inactive”.
With `O=C(Cc1cccs1)NC1(C(=O)NC2CCCC2)CCCCC1` the Potency was inconclusive [inhibitor, full curve, poor fit].
With `CC(=O)NCCC(=O)Nc1nc(C)c(Cc2ccc3c(c2)OCO3)s1` the Potency was inconclusive [inhibitor, full curve].
`CCc1nn(CCCC(=O)NCc2ccc(OC)c(OC)c2)c(=O)c2cc3occc3n12` was tested, and the Potency was inconclusive [inhibitor, partial curve].
For `COc1ccc(S(=O)(=O)N2CCN(C(=O)C3CC3)CC2)cc1Br`, the Potency was inconclusive [inhibitor, full curve, poor fit].
`O=C(NC(=S)Nc1ccc(S(=O)(=O)N2CCCCC2)cc1)c1cccs1` was tested, and the Potency was “inactive”.
With `CCOc1ccc(CC(=O)NCC(=O)NCc2cc(=O)n(C)c(=O)n2C)cc1` the Potency was inconclusive [inhibitor, full curve, poor fit].
`CS(=O)(=O)N(CC(=O)Nc1cc(Cl)ccc1Cl)c1ccccc1` was tested, and the Potency was inconclusive [inhibitor, single point].
With `CCCOC(=O)c1ccc(Nc2cc(C)nc3ncnn23)cc1` the Potency was inconclusive [inhibitor, full curve].
With `Clc1ccc(-c2csc(N3CCSCC3)n2)cc1` the Potency was “inactive”.
`CC1CCN(C(c2cccs2)c2nnnn2Cc2ccccc2)CC1` (stereo not given) was tested, and the Potency was inconclusive [inhibitor, partial curve, poor fit].
In the case of `COc1cc(CNc2ccc(C)c(C)c2)cc(OC)c1OC`, the Potency is reported as “inactive”.
For `CCCC(C)C(=O)Nc1ccncc1` (stereo not given), the Potency was inconclusive [inhibitor, full curve, poor fit].
With `C[C@@H]1NC(=O)[C@H](CCC(=O)O)NC(=O)c2cc([N+](=O)[O-])cc(F)c2NCCC[C@@H](C(N)=O)NC1=O` the Potency was inconclusive [inhibitor, full curve, poor fit].
In the case of `COc1ccccc1N1CCN(C(=O)c2cc3cc(Br)ccc3oc2=O)CC1`, the Potency is reported as inconclusive [inhibitor, full curve, poor fit].
For `COc1ccc(/C=C2\SC(=O)N(CC(=O)NNC(=O)c3ccccc3O)C2=O)cc1`, the Potency was “inactive”.
For `CCCCCCn1c(/C=C/c2ccccc2)nc2ccccc21`, the Potency was “inactive”.
For `C/C(=N\NC(=O)CN1CCN(S(=O)(=O)c2ccc(C)cc2)CC1)c1cccnc1`, the Potency was “inactive”.
With `O=C(Nc1ccc(N2CCOCC2)cc1N1CCOCC1)c1cccc([N+](=O)[O-])c1` the Potency was inconclusive [inhibitor, full curve, poor fit].
`COc1ccc(NC(=O)c2ccc3[nH]c(C)cc(=O)c3c2)cc1` was tested, and the Potency was “inactive”.
In the case of `Fc1ccc2nc(Nc3nc4c(F)cccc4s3)sc2c1`, the Potency is reported as inconclusive [inhibitor, partial curve].
In the case of `CSc1nccc(N/N=C/c2ccccc2)n1`, the Potency is reported as “inactive”.
With `COc1ccc(-n2ccc(=O)c(C(=O)O)n2)c(OC)c1` the Potency was “inactive”.
With `COc1ccc(Cl)cc1NC(=O)CN(C)C1CCCCC1` the Potency was “inactive”.
For `COC(=O)/C=C/CC(C)OS(N)(=O)=O` (stereo not given), the Potency was inconclusive [inhibitor, full curve, poor fit].
`O=C(c1n[nH]c2c1CCC2)N1CCCC(Nc2cccc(F)c2)C1` (stereo not given) was tested, and the Potency was inconclusive [inhibitor, full curve].
For `O=C(c1ccc2nc[nH]c2c1)N1CCN(c2cccc(Cl)c2)CC1`, the Potency was “inactive”.
For `CCOC(=O)C1CCCN(C(=O)c2ccc(OC(C)=O)cc2)C1` (stereo not given), the Potency was inconclusive [inhibitor, full curve, poor fit].
With `CCS(=O)(=O)NCCCc1ccccc1` the Potency was inconclusive [inhibitor, full curve, poor fit].
With `CCCN1CCC(NC(=O)C2CCCCC2C(=O)O)CC1` (stereo not given) the Potency was inconclusive [inhibitor, full curve, poor fit].
`Cc1ccc(CNC(=O)CN2C(=O)COc3ccc(S(=O)(=O)N4CCC(C)CC4)cc32)cc1` was tested, and the Potency was “inactive”.
`O=C(NN=C1CCCC1)C(=O)Nc1cccc(C(F)(F)F)c1` was tested, and the Potency was inconclusive [inhibitor, single point].
`O=C(c1ccco1)N(CCC(c1ccccc1)c1ccco1)Cc1ccccc1` (stereo not given) was tested, and the Potency was “inactive”.
`CCN1C(=O)c2ccccc2S(=O)(=O)c2ccc(C(=O)NCc3ccc(F)cc3)cc21` was tested, and the Potency was inconclusive [inhibitor, partial curve].
For `COc1ccccc1-n1c(-c2ccccc2)n[nH]c1=S`, the Potency was “inactive”.
In the case of `COc1ccc(CCNC(=O)c2cc(-c3ccc(C)cc3O)n[nH]2)cc1OC`, the Potency is reported as “inactive”.
In the case of `COc1ccc(C(=O)c2ccc(N3CCN(C(=O)c4ccc(F)cc4)CC3)c(F)c2)cc1Br`, the Potency is reported as inconclusive [inhibitor, full curve, poor fit].
With `Cc1ccc(NC(=O)C(C)OC(=O)c2n[nH]c3ccccc23)cc1` (stereo not given) the Potency was inconclusive [inhibitor, partial curve, poor fit].
For `CCN1C(=O)[C@@H]2[C@@H](c3ccc(-c4ccc(Cl)c(Cl)c4)c(OC)c3)N3CCCC[C@@]3(C(=O)OC)[C@@H]2C1=O`, the Potency was “inactive”.
`CCOc1ccc2ccccc2c1C(=O)NCC(c1ccc(N(C)C)cc1)N(C)C` (stereo not given) was tested, and the Potency was inconclusive [inhibitor, full curve].
For `Brc1ccc(-c2csc(N3CCCCCC3)n2)cc1`, the Potency was inconclusive [inhibitor, partial curve].
In the case of `c1nc(NCC2(N3CCOCC3)CCCCC2)c2ccsc2n1`, the Potency is reported as inconclusive [inhibitor, partial curve, poor fit].
In the case of `CCS(=O)(=O)N1CCN=C1SCc1cccc(F)c1`, the Potency is reported as “inactive”.
For `O=C(CSc1ccccc1)Nc1ccncc1`, the Potency was “inactive”.
In the case of `COc1ccc(NC(=O)c2ccc(-c3cccc(Cl)c3C)o2)cc1`, the Potency is reported as “inactive”.
In the case of `CCC(=O)CC(c1ccccc1)c1c(O)c2ccccc2sc1=O` (stereo not given), the Potency is reported as “inactive”.
For `O=C(C1CC1)N1CCN(c2ccc(F)cc2)CC1`, the Potency was inconclusive [inhibitor, full curve, poor fit].
With `CCc1nccn1-c1cc(C(C)(C)C)nc2c(-c3ccc(Cl)cc3)cnn12` the Potency was inconclusive [inhibitor, partial curve].
`C/C(=N\OCc1ccccc1C#N)c1cc2ccccc2o1` was tested, and the Potency was “inactive”.
In the case of `N/C(=N\OC(=O)c1cc(Cl)ccc1Cl)c1cccnc1`, the Potency is reported as “inactive”.
